Where a name gives a salt, the structure may show the parent alone. Some of the results follow.
These compounds were tested on Schistosoma mansoni schistosomula (assay: phenotypic hit in primary schistosomula screen (any phenotype vs DMSO control) (binary (1 = hit, 0 = no phenotype)); higher = active (phenotype induced)). Conditions: 1 µM; time (d): 7.

Row | Compound | phenotypic hit
1 | COc1ccc(C(CN(C)C)C2(O)CCCCC2)cc1 (centres undefined) [venlafaxine hydrochloride] | inactive: 0
2 | C[C@H](N)[C@H](O)c1ccccc1 [L(-)-Norephedrine] | inactive: 0
3 | COc1cc2c(cc1OC)-c1c(oc3c4c(ccc3c1=O)OC(C(C)C)C4)CO2 (centres undefined) [dehydrodihydrorotenone] | inactive: 0
4 | CN1CCc2cc3c(cc2C1O)OCO3 (centres undefined) [hydrastinine hydrochloride] | inactive: 0
5 | CC1(C)C2CC(=O)[C@]3(C)C(CC[C@@]4(C)[C@H](c5ccoc5)OC(=O)[C@H]5O[C@]543)[C@@]2(C)C(=O)C[C@H]1O (some centres undefined) [1,7-dideacetoxy-1,7-dioxo-3-deacetylkhivorin] | inactive: 0
6 | COc1ccc(C(=O)O)cc1OC [veratric acid] | inactive: 0
7 | CC(C)C[C@H]1C(=O)N2CCC[C@H]2[C@]2(O)O[C@](NC(=O)[C@@H]3C=C4c5cccc6[nH]c(Br)c(c56)C[C@H]4N(C)C3)(C(C)C)C(=O)N12 [bromocriptine mesylate] | inactive: 0
8 | CN1[C@@H]2CC[C@H]1C[C@@H](OC(=O)C(CO)c1ccccc1)C2 (some centres undefined) [Atropine sulfate] | inactive: 0
9 | CCC(C)C(OC(C)=O)C(=O)OC1C(O)C2C3(C)C=CC(=O)C(C)(C)C3CC(OC(=O)C(O)C(C)C)C2(C)C23OC2CC(c2ccoc2)C13C (centres undefined) [heudelottin c] | inactive: 0
10 | CC(=O)OC1CC(OC(C)=O)C2(C)C(CC(OC(C)=O)C3(C)C2CCC2(C)C(c4ccoc4)CC4OC423)C1(C)C (centres undefined) [havanensin triacetate] | inactive: 0
11 | O=C(O)CCCOc1ccc(Cl)cc1Cl [2,4-dichlorophenoxybutyric acid] | inactive: 0
12 | CN1[C@@H]2CC[C@H]1C[C@@H](OC(c1ccccc1)c1ccccc1N)C2 (some centres undefined) [Aminobenztropine] | inactive: 0
13 | CN1Cc2c(ccc3c2OCO3)C2C(O)Cc3cc4c(cc3C21)OCO4 (stereo not drawn) [chelidonine (+)] | inactive: 0
14 | C[C@]12CCC(=O)C(O)=C1CC[C@@H]1[C@@H]2CC[C@]2(C)C(=O)CC[C@@H]12 [formestane] | inactive: 0
15 | CCOP(=S)(OCC)Oc1cc(C)nc(C(C)C)n1 [diazinon] | inactive: 0
16 | CNC(C)(C)Cc1ccccc1 [mephentermine sulfate] | inactive: 0
17 | CNC(Cc1c[nH]c2ccccc12)C(=O)O (centres undefined) [abrine (l)] | inactive: 0
18 | COC1=C[C@]23CCCN2CCc2cc4c(cc2[C@@H]3[C@@H]1O)OCO4 [cephalotaxine] | inactive: 0
19 | COc1cc(C(=O)O)cc(OC)c1OC [eudesmic acid] | inactive: 0
